Read counts are not given, so values of variants with three or more changes are uncertain.
B1: LINE1-mini (parent)
chain: GGCAGAGCUCAACACAGCGUGGCAAAGUGGCUGUGGCUAGACUGCC

Variants of: B1
Test: self-cleavage, relative activity (ratio to wild type); higher = more cleavage; in vitro, sequencing; the parent is a self-cleaving ribozyme

For G5A C13U A24U G44A, which self-cleavage is on record?
The self-cleavage was 0.06.

For C3A C15A A16G G27U C42A, which self-cleavage is on record?
The self-cleavage was 0.06.

With C15G G27U C31A G33U as the variant, how does the self-cleavage read?
Its self-cleavage is 0.03.

With C10A A14U G27U G40A as the variant, how does the self-cleavage read?
The self-cleavage was 0.01.

For A11C U20G C42A, which self-cleavage is on record?
Its self-cleavage is 0.01.

Which self-cleavage does the source give for G5A G40U C45A here?
Its self-cleavage is 0.11.

Which self-cleavage does the source give for C8A C13A A14G G17A U20A C45U here?
Its self-cleavage is 0.02.

Which self-cleavage does the source give for G2A G5A C42G here?
The self-cleavage was 0.07.

For U9C A16U U28A, which self-cleavage is on record?
Its self-cleavage is 0.02.

For G5C A14U A16U G17U G30A C31G, which self-cleavage is on record?
Its self-cleavage is 0.01.

With C13A A24G U28C U34A as the variant, how does the self-cleavage read?
Its self-cleavage is 0.06.

Which self-cleavage does the source give for G2U C8G G19C U34C G40U here?
The self-cleavage was 0.02.

With C13A U20C G21A as the variant, how does the self-cleavage read?
Its self-cleavage is 0.05.

For G17U C18A G30C, which self-cleavage is on record?
The self-cleavage was 1.46.

With A12U G36U G44C as the variant, how does the self-cleavage read?
Its self-cleavage is 0.04.

Which self-cleavage does the source give for G5A A14G A16G U32C here?
Its self-cleavage is 0.08.

With A4G G17C U20C C23G as the variant, how does the self-cleavage read?
The self-cleavage was 0.22.

For A11C G33A C42G, which self-cleavage is on record?
Its self-cleavage is 0.

Which self-cleavage does the source give for A25G G36A C46A here?
The self-cleavage was 0.05.

Which self-cleavage does the source give for A6C A26U G33A here?
The self-cleavage was 0.04.

For G17A G29C C42A, which self-cleavage is on record?
The self-cleavage was 0.01.

With C15U A24U U38G as the variant, how does the self-cleavage read?
The self-cleavage was 0.04.

Which self-cleavage does the source give for G22C C31U C42G here?
Its self-cleavage is 0.04.

Which self-cleavage does the source give for C8U G27U A41C here?
Its self-cleavage is 0.13.

For C10A U20C U28A, which self-cleavage is on record?
Its self-cleavage is 0.03.

For G19U G27A G30C G33A G36A, which self-cleavage is on record?
The self-cleavage was 0.02.

With G1C U20C A26U G30U C46A as the variant, how does the self-cleavage read?
The self-cleavage was 0.23.

With G5C U20A C45U as the variant, how does the self-cleavage read?
The self-cleavage was 0.12.

For C10G G21C G29A, which self-cleavage is on record?
Its self-cleavage is 0.05.

With C8G A25U C42G G44A as the variant, how does the self-cleavage read?
Its self-cleavage is 0.05.

With A4U C8A C15U as the variant, how does the self-cleavage read?
The self-cleavage was 0.1.

With G2U A4C G21A U28C G44A as the variant, how does the self-cleavage read?
Its self-cleavage is 0.1.

Which self-cleavage does the source give for G5U C13A U28C A39G C42A here?
Its self-cleavage is 0.04.

With G1A G33U A41U as the variant, how does the self-cleavage read?
The self-cleavage was 0.12.

Which self-cleavage does the source give for A4U G5A A6U U28C here?
Its self-cleavage is 0.08.

For G1U G7U A16U G30U G44A, which self-cleavage is on record?
Its self-cleavage is 0.05.

With U20G G36C U43C as the variant, how does the self-cleavage read?
The self-cleavage was 0.04.

With G2C C13U G21C C42A as the variant, how does the self-cleavage read?
Its self-cleavage is 0.19.

With A14U U28A A41U as the variant, how does the self-cleavage read?
The self-cleavage was 0.03.

For U28G G29A C31U, which self-cleavage is on record?
The self-cleavage was 1.15.

For A11U U32C G44U C46U, which self-cleavage is on record?
The self-cleavage was 0.

For A39U G40A G44U, which self-cleavage is on record?
Its self-cleavage is 0.05.

For A6U C15U G22A C23G G27A, which self-cleavage is on record?
The self-cleavage was 0.81.

Which self-cleavage does the source give for C3U G5C C18A G29C A39C here?
The self-cleavage was 0.09.

For U20C G36U C45U, which self-cleavage is on record?
Its self-cleavage is 0.01.

Which self-cleavage does the source give for C13G G22A C23U here?
The self-cleavage was 0.1.

For G7C A11G C13A, which self-cleavage is on record?
Its self-cleavage is 0.03.

For C13G C18A G33U, which self-cleavage is on record?
The self-cleavage was 0.09.

Which self-cleavage does the source give for C18U A26U C42U here?
Its self-cleavage is 0.09.

Which self-cleavage does the source give for A14U G22A C23G U34A here?
Its self-cleavage is 0.31.

With C3A U20G G30C U34A as the variant, how does the self-cleavage read?
Its self-cleavage is 0.07.

With A4C G7A A14U as the variant, how does the self-cleavage read?
The self-cleavage was 0.01.

Which self-cleavage does the source give for C15G G29A C31G here?
Its self-cleavage is 0.01.

For A4G U34A C37U U38A, which self-cleavage is on record?
Its self-cleavage is 0.02.

For A6G C18G C37A, which self-cleavage is on record?
The self-cleavage was 0.06.

For C10A A12G G30A G36A, which self-cleavage is on record?
The self-cleavage was 0.04.

For G7U G22C A25G A41U C45G, which self-cleavage is on record?
The self-cleavage was 0.07.

Which self-cleavage does the source give for A24C A25G G29U G35U here?
Its self-cleavage is 0.22.

With G7A A12C A25G as the variant, how does the self-cleavage read?
The self-cleavage was 0.01.

Which self-cleavage does the source give for A6C G19U A26U G30A G36A here?
Its self-cleavage is 0.02.

Which self-cleavage does the source give for A6G U20C C45U here?
Its self-cleavage is 0.14.

With A14U C18G U34G G40A as the variant, how does the self-cleavage read?
The self-cleavage was 0.03.

With A14G G36A A39U as the variant, how does the self-cleavage read?
The self-cleavage was 0.07.

With G2C C3U C15G A26U as the variant, how does the self-cleavage read?
Its self-cleavage is 0.02.

Which self-cleavage does the source give for A11C G21U G27A G33U here?
The self-cleavage was 0.02.

Which self-cleavage does the source give for U20A A25C C37G here?
Its self-cleavage is 0.02.

Which self-cleavage does the source give for G2C A6C G35U here?
Its self-cleavage is 0.33.

For G1U C23A A26G, which self-cleavage is on record?
The self-cleavage was 0.23.

Which self-cleavage does the source give for A24G G30U C37G G40U here?
The self-cleavage was 0.03.

For G22C C23U G33U C46G, which self-cleavage is on record?
Its self-cleavage is 0.15.

Which self-cleavage does the source give for C23G G30A U43C here?
The self-cleavage was 0.05.

Which self-cleavage does the source give for G2A G17U U20C U38A here?
Its self-cleavage is 0.15.

For G5C C13A G40A, which self-cleavage is on record?
The self-cleavage was 0.07.

For G1U C8G U34A, which self-cleavage is on record?
The self-cleavage was 0.04.

With G17C C37G G40C as the variant, how does the self-cleavage read?
The self-cleavage was 0.05.

With C8U G27A C37A G40U as the variant, how does the self-cleavage read?
Its self-cleavage is 0.2.

For C10U A11G G36U, which self-cleavage is on record?
Its self-cleavage is 0.02.

Which self-cleavage does the source give for A4C U9G C10U G17A U20G G27C here?
Its self-cleavage is 0.05.

With A4C G17C G27A U43C as the variant, how does the self-cleavage read?
The self-cleavage was 0.03.

With C10U G17C G19A G30A C37A C46G as the variant, how does the self-cleavage read?
Its self-cleavage is 0.02.

For A26C U32G U34A C37G U38G, which self-cleavage is on record?
Its self-cleavage is 0.05.

Which self-cleavage does the source give for C10U G30A G40C C46A here?
Its self-cleavage is 0.03.

Which self-cleavage does the source give for C13G A14G C15U G17C G33A here?
Its self-cleavage is 0.02.

— the RNAGym collection of RNA variant scans (doi:10.7554/elife.90254)
